# This is one part of the list. Values were computed here from the reads of four pooled replicates and scatter widely.
# Biological target: T1, Pho4 (S. cerevisiae) (UniProt P07270)
# T1 sequence: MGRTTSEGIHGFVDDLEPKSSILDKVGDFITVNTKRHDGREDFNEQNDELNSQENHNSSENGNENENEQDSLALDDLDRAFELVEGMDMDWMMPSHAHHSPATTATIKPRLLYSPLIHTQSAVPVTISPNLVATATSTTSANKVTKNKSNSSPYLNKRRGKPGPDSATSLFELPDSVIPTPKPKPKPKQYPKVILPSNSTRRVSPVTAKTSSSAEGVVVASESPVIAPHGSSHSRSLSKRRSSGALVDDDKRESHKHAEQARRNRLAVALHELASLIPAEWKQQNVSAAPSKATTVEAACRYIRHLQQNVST
# Test: relative binding free energy (BET-seq); higher = weaker binding
# Details: reference: library average
row,Sequence,relative binding free energy [kcal/mol]
1,TAAGGCACGTGACGGT,-0.18
2,TCGGGCACGTGGCTTT,-0.21
3,TAGGACACGTGGGTGG,-0.18
4,GGCGGCACGTGGAAGG,-0.01
5,GGGTTCACGTGTGTCC,0.41
6,TGTTGCACGTGGATGG,0.13
7,CTTGGCACGTGTTTGA,-0.1
8,GCGGGCACGTGAGGGC,0.23
9,TTAAGCACGTGATAGG,-0.01
10,TCATGCACGTGTATGG,0
11,AGTGGCACGTGTCGCT,-0.07
12,GAATTCACGTGGTGTG,0.24
13,TTTCACACGTGATGGC,0.24
14,GATTTCACGTGGCGTT,0.28
15,AATGGCACGTGTTTCG,-0.13
16,CGTAGCACGTGAGTGG,0.02
17,AGTGTCACGTGGCGCA,-0.02
18,CGCTTCACGTGGTGGA,0.13
19,AACAGCACGTGGTTGT,-0.27
20,AGTTGCACGTGGCGGT,-0.15
21,TGGTGCACGTGCCGTG,-0.18
22,TAGTTCACGTGCTTAG,0.28
23,ACTTGCACGTGTGTGG,-0.03
24,CGAGGCACGTGAGGCT,0.16
25,CAGGGCACGTGTTTGG,-0.04
26,TTTAGCACGTGTTTGA,-0.06

row,Sequence,relative binding free energy [kcal/mol]
1,GCGATCACGTGGCGGG,0.12
2,GTGGGCACGTGGGTTA,-0.22
3,TTGGACACGTGATTGT,0.22
4,AGTCACACGTGGGAAG,-0.03
5,GTGGGCACGTGGGATG,-0.13
6,GGTATCACGTGGGTTC,0.08
7,GGGCTCACGTGGGAGA,0.11
8,TACTGCACGTGTGTGC,0.09
9,AGCAGCACGTGGGGAG,-0.19
10,AATCACACGTGTTTGT,-0.06
11,CGTAACACGTGGTGTA,-0.12
12,TATTGCACGTGAGGTC,0.24
13,ATTCTCACGTGAGATT,0.39
14,TGCGGCACGTGTGTTA,0.01
15,AATAACACGTGGTGTA,-0.18
16,GACGGCACGTGGCGTG,-0.13
17,AAGGGCACGTGAGTTG,0.14
18,GTGGGCACGTGGTCAA,-0.13
19,AGAGGCACGTGGAGGT,0.02
20,AGAAACACGTGGCGGT,-0.03
21,AGTCACACGTGGTAGG,-0.08
22,ATTTTCACGTGGTAGA,0.23
23,AGCCGCACGTGGTGAG,-0.11
24,TCTTTCACGTGGGGCC,0.27
25,AGGTTCACGTGAAGGC,0.43
26,CGGGCCACGTGGTATG,-0.23

row,Sequence,relative binding free energy [kcal/mol]
1,TTCGGCACGTGATGTC,0.1
2,ATAGACACGTGTATAT,-0.01
3,TAGATCACGTGCGATT,0.2
4,AAGGTCACGTGAGGGG,0.3
5,TGGCGCACGTGGTACA,-0.09
6,AGATGCACGTGTGCTA,-0.01
7,AGAGTCACGTGACGGT,0.35
8,TCAGGCACGTGTAGTT,-0.07
9,ATGGGCACGTGGCGTT,-0.31
10,TGATGCACGTGGGTTG,-0.14
11,GAGTGCACGTGGTGAA,-0.01
12,GGGGACACGTGTGCAT,0.02
13,AGCGTCACGTGTGTGG,0.15
14,ATTTTCACGTGGTATG,0.24
15,GGTATCACGTGGGGTC,0.12
16,ATTAACACGTGAGGAG,0.18
17,GTGGTCACGTGGATTT,0.23
18,CGATGCACGTGGCGTG,-0.11
19,GTGGACACGTGAAATG,0.26
20,GTCTGCACGTGGGTAA,-0.09
21,TTGGGCACGTGGGTGA,-0.23
22,ATGTGCACGTGGAGTT,-0.02
23,GCTATCACGTGTATGT,0.16
24,GGTACCACGTGTGATG,0.08
25,AGTGCCACGTGTGTGT,-0.14
26,ATATGCACGTGGGCGT,-0.24

row,Sequence,relative binding free energy [kcal/mol]
1,ATGCGCACGTGTCTGG,-0.12
2,AAGTGCACGTGGTTAG,0.02
3,GTATGCACGTGCTCGG,-0.08
4,TCGGGCACGTGTCATG,-0.11
5,GGGGTCACGTGCGTGT,0.2
6,TGTCTCACGTGAAAGG,0.51
7,TGCAGCACGTGAGGCT,0.23
8,TAGTACACGTGGATGG,-0.03
9,AGATACACGTGGTTGA,0.02
10,TTAGACACGTGGTAAG,-0.16
11,TGTGACACGTGGTTTG,-0.02
12,CCTGGCACGTGTTGTT,-0.04
13,GACGTCACGTGTAGTG,0.27
14,GGCAACACGTGGCGGG,-0.08
15,GGCGACACGTGGGAAG,-0.01
16,GAGCTCACGTGTGTGA,0.26
17,CTTATCACGTGTATTT,0.03
18,GAGCTCACGTGGGAAG,0.25
19,GGTTACACGTGGTTCG,0.09
20,GATGTCACGTGAGCGT,0.25
21,TTAGGCACGTGTGCGG,-0.17
22,AGGTGCACGTGCACGT,-0.14
23,AGTTTCACGTGTTCGA,0.14
24,GGCAGCACGTGAGTTG,0.12
25,CAGGGCACGTGTGGCG,-0.03
26,GGTGTCACGTGAAAGT,0.35

row,Sequence,relative binding free energy [kcal/mol]
1,GTCAGCACGTGCGGGT,-0.02
2,TAAGTCACGTGTGGCA,0.17
3,TAGTTCACGTGATGAG,0.31
4,TTGATCACGTGTCAGG,0.28
5,GAAGTCACGTGGATTT,0.29
6,CTTATCACGTGTGGGT,0.04
7,TGAGTCACGTGCTATG,-0.13
8,GGGTCCACGTGTGGAG,0.07
9,GTTTACACGTGTTGCT,0.11
10,CGGCCCACGTGGGTTG,-0.11
11,TGTTGCACGTGGTTCA,-0.1
12,ATCGTCACGTGTGGTC,0.17
13,GATGTCACGTGCGTTG,0.02
14,AGAGTCACGTGTTGTG,-0.04
15,GGAGACACGTGGTGTA,-0.15
16,GATGTCACGTGGGTAG,0.08
17,GGTTGCACGTGCTAAG,0.05
18,AGTTACACGTGGTATT,0.08
19,ATTCTCACGTGGTGTA,0.02
20,AGATGCACGTGCTCGT,0.05
21,ATGGACACGTGCGGGG,-0.01
22,GGTCGCACGTGGGTCG,-0.2
23,TGGAGCACGTGCGGAG,-0.06
24,GTTGGCACGTGTCTAT,0.12
25,GAGGACACGTGTTTGA,0.14
26,GTGTGCACGTGCATGA,-0.13

row,Sequence,relative binding free energy [kcal/mol]
1,GGCTTCACGTGGAAGG,0.35
2,GTTTGCACGTGCGGTG,0.12
3,TGTAGCACGTGTTGTA,-0.02
4,AGTGTCACGTGTCTGA,0.16
5,CGGGGCACGTGTGGTC,-0.07
6,TAAAGCACGTGATTTT,-0.02
7,TTAGTCACGTGGAATA,0.22
8,TAGGGCACGTGGTATG,-0.14
9,CGTTGCACGTGGTGTC,-0.07
10,TGAGTCACGTGAATGG,0.28
11,GTAGTCACGTGATTTT,0.2
12,GGTAGCACGTGAAATT,0.28
13,ATTGACACGTGGAGGG,0.05
14,AGCGACACGTGGTTTT,-0.05
15,AAGTTCACGTGTTCTG,0.36
16,TACGACACGTGTGGAG,0.03
17,TGGCACACGTGGTGCT,0.05
18,ATAATCACGTGGTTGC,0.06
19,TTGAACACGTGAGCGT,0.19
20,GGGGTCACGTGCTGTA,0.14
21,GGGGGCACGTGTTGTG,-0.09
22,TTGATCACGTGGAAGG,0.27
23,GCAGTCACGTGATGTG,0.31
24,TGTGTCACGTGGGGCC,-0.06
25,TTTGTCACGTGAGGGG,0.24
26,GTGGTCACGTGAGTAA,0.28

row,Sequence,relative binding free energy [kcal/mol]
1,AAAAGCACGTGTGGTA,0.06
2,GTGTGCACGTGGCATC,0.07
3,CGTGTCACGTGGCGTC,0.08
4,AGTTTCACGTGGAGTA,0.19
5,GTCTGCACGTGATCGT,0.17
6,GGGGTCACGTGTGATT,0.44
7,GGCCGCACGTGGTTGT,-0.14
8,GCGTGCACGTGAAGTT,0.21
9,GTGACCACGTGATGGT,-0.02
10,GTGTGCACGTGTATTT,0.11
11,TGATACACGTGCGGGG,-0.08
12,TAGATCACGTGGAGAT,0.23
13,TTAATCACGTGAGGGA,0.31
14,GTGGTCACGTGGGGGG,0.01
15,TTACACACGTGGAGGG,0
16,GAAGGCACGTGCGGGT,-0.03
17,GGAGTCACGTGGTTGC,0.15
18,GGAATCACGTGTGGGG,0.23
19,ATATCCACGTGGAGGT,-0.05
20,TAAGTCACGTGGGTTG,-0.03
21,AATTGCACGTGTATAG,-0.03
22,GCAATCACGTGTGTTT,0.18
23,CGTCGCACGTGGAGGT,-0.12
24,TTTGACACGTGGAAGC,0.16
25,GGGGTCACGTGTTTTG,0.29
26,CGGGTCACGTGACTGG,0.19

row,Sequence,relative binding free energy [kcal/mol]
1,ATATGCACGTGAGTGG,0.17
2,GTTCTCACGTGTTAGT,0.35
3,GTATACACGTGTAGTT,0.13
4,CATTACACGTGTGGTG,0.14
5,TAAGGCACGTGGGTCG,-0.24
6,TAGGTCACGTGGTTCT,0.05
7,TACTGCACGTGAGGTT,0.2
8,AGTGACACGTGGATTG,-0.06
9,TGTATCACGTGGGAAC,0.18
10,GATTTCACGTGGATGG,0.44
11,GGGCGCACGTGGGATG,-0.16
12,TTTTGCACGTGGCGTA,-0.06
13,GAGGGCACGTGGGGCG,-0.21
14,TGCTTCACGTGTGTAG,0.23
15,AGTCGCACGTGGTATT,-0.13
16,GTCAGCACGTGAGGGA,0.15
17,GTACTCACGTGGTGCG,0.2
18,AACGGCACGTGTGATG,0.05
19,TCTAACACGTGTGGTG,-0.03
20,TCTAGCACGTGGGTGA,-0.2
21,GAATCCACGTGTGTGG,0.09
22,CTCGGCACGTGATGGT,0
23,GTAGGCACGTGGATGA,-0.04
24,GGGTACACGTGGATTC,0.28
25,TATTTCACGTGAAGGT,0.29
26,AGTTTCACGTGCGTGA,0.16

row,Sequence,relative binding free energy [kcal/mol]
1,CATGTCACGTGTTTTA,-0.03
2,TTACTCACGTGTTTGG,0.13
3,AGAGTCACGTGAGTTG,0.28
4,AAGAACACGTGAGGGT,0.29
5,GGTAGCACGTGTGTCT,0.02
6,TAGGGCACGTGGTCGG,-0.03
7,CGGCACACGTGAGGGT,0.29
8,CGGCGCACGTGTGTAG,0.03
9,AGTTGCACGTGGAAAG,0.08
10,ATGCGCACGTGGGCTG,-0.31
11,AAGTGCACGTGTGTGT,-0.01
12,GGGCCCACGTGTATGT,0.02
13,AGCTGCACGTGCTTTT,0.08
14,ATTTCCACGTGGAGTG,0.08
15,GAAGTCACGTGATAGT,0.19
16,GGTGGCACGTGCGGTA,-0.08
17,GAGGGCACGTGGGTAC,-0.28
18,TCTTGCACGTGATAGT,0.03
19,TAAATCACGTGTTAGT,0.07
20,TGGCGCACGTGTGGCT,0.1
21,CGTTTCACGTGGGTAT,0.15
22,TTGTGCACGTGTGGTT,0.11

# From the BET-seq Pho4 binding data (Le et al. 2018)
